According to the supplement of paper PMC8728848:
The list shows a part of the results.

Experiments:
Experiment in all cases: glycan array binding signal (z-score within array); higher = stronger binding
Conditions in all cases: glycan notation: IUPAC condensed, linker removed
[1] = molecular target: Man(a1-2)Man(a1-3)[Man(a1-2)Man(a1-6)]Man
In short: (§1)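 Columns mapping to the same glycan were averaged after glycan names were converted to IUPAC-condensed notation. The data come from 3228 arrays in the Consortium for Functional Glycomics database, limited to those with an available protein sequence. Binding is reported as a within-array Z-score averaged across arrays of one protein sequence and across linkers.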

[2] = molecular target: Man(a1-2)Man(a1-3)[Man(a1-2)Man(a1-6)]Man(a1-6)[Man(a1-2)Man(a1-2)Man(a1-3)]Man
In short: as §1

[3] = molecular target: Man(a1-2)Man(a1-3)[Man(a1-2)Man(a1-6)]Man(a1-6)[Man(a1-2)Man(a1-2)Man(a1-3)]Man(b1-4)GlcNAc(b1-4)GlcNAc
In short: as §1

[4] = molecular target: Man(a1-2)Man(a1-3)[Man(a1-6)]Man(a1-6)[Man(a1-2)Man(a1-3)]Man(b1-4)GlcNAc(b1-4)GlcNAc
In short: as §1

[5] = molecular target: Man(a1-2)Man(a1-6)[Man(a1-3)]Man(a1-6)[Man(a1-2)Man(a1-2)Man(a1-3)]Man
In short: as §1

[6] = molecular target: Man(a1-2)Man(a1-6)[Man(a1-3)]Man(a1-6)[Man(a1-2)Man(a1-2)Man(a1-3)]Man(b1-4)GlcNAc(b1-4)GlcNAc
In short: as §1

Man(a1-3)[Man(a1-6)]Man = molecular target: Man(a1-3)[Man(a1-6)]Man
In short: as §1

[7] = molecular target: Man(a1-3)[Man(a1-6)]Man(a1-6)[Man(a1-2)Man(a1-3)]Man(b1-4)GlcNAc(b1-4)GlcNAc
In short: as §1

[8] = molecular target: Man(a1-3)[Man(a1-6)]Man(a1-6)[Man(a1-3)]Man
In short: as §1

[9] = molecular target: Man(a1-3)[Man(a1-6)]Man(a1-6)[Man(a1-3)]Man(b1-4)GlcNAc(b1-4)GlcNAc
In short: as §1

[10] = molecular target: Man(a1-3)[Man(a1-6)]Man(b1-4)GlcNAc(b1-4)GlcNAc
In short: as §1

[11] = molecular target: Man(a1-3)[Man(a1-6)]Man(b1-4)GlcNAc(b1-4)[Fuc(a1-6)]GlcNAc
In short: as §1

Man(a1-6)Man = molecular target: Man(a1-6)Man
In short: as §1

Man(b1-4)GlcNAc = molecular target: Man(b1-4)GlcNAc
In short: as §1

MurNAc(b1-4)GlcNAc = molecular target: MurNAc(b1-4)GlcNAc
In short: as §1

Neu5Ac(a2-3)Gal = molecular target: Neu5Ac(a2-3)Gal
In short: as §1

[12] = molecular target: Neu5Ac(a2-3)Gal(b1-3)GalNAc
In short: as §1

[13] = molecular target: Neu5Ac(a2-3)Gal(b1-3)GalNAc(b1-3)Gal(a1-4)Gal(b1-4)Glc
In short: as §1

[14] = molecular target: Neu5Ac(a2-3)Gal(b1-3)GalNAc(b1-4)[Neu5Ac(a2-3)]Gal(b1-4)Glc
In short: as §1

[15] = molecular target: Neu5Ac(a2-3)Gal(b1-3)GalNAc(b1-4)[Neu5Ac(a2-8)Neu5Ac(a2-3)]Gal(b1-4)Glc
In short: as §1

[16] = molecular target: Neu5Ac(a2-3)Gal(b1-3)GalNAc6S
In short: as §1

[17] = molecular target: Neu5Ac(a2-3)Gal(b1-3)GlcNAc
In short: as §1

[18] = molecular target: Neu5Ac(a2-3)Gal(b1-3)GlcNAc(b1-2)Man
In short: as §1

[19] = molecular target: Neu5Ac(a2-3)Gal(b1-3)GlcNAc(b1-2)Man(a1-3)[GlcNAc(b1-4)][Neu5Ac(a2-3)Gal(b1-3)GlcNAc(b1-2)Man(a1-6)]Man(b1-4)GlcNAc(b1-4)GlcNAc
In short: as §1

[20] = molecular target: Neu5Ac(a2-3)Gal(b1-3)GlcNAc(b1-2)Man(a1-3)[Neu5Ac(a2-3)Gal(b1-3)GlcNAc(b1-2)Man(a1-6)]Man(b1-4)GlcNAc(b1-4)GlcNAc
In short: as §1

[21] = molecular target: Neu5Ac(a2-3)Gal(b1-3)GlcNAc(b1-3)Gal(b1-3)GlcNAc
In short: as §1

[22] = molecular target: Neu5Ac(a2-3)Gal(b1-3)GlcNAc(b1-3)Gal(b1-4)GlcNAc
In short: as §1

[23] = molecular target: Neu5Ac(a2-3)Gal(b1-3)GlcNAc(b1-3)GalNAc
In short: as §1

[24] = molecular target: Neu5Ac(a2-3)Gal(b1-3)GlcNAc(b1-4)Gal(b1-4)Glc
In short: as §1

[25] = molecular target: Neu5Ac(a2-3)Gal(b1-3)GlcNAc(b1-6)GalNAc
In short: as §1

[26] = molecular target: Neu5Ac(a2-3)Gal(b1-3)GlcNAc6S
In short: as §1

[27] = molecular target: Neu5Ac(a2-3)Gal(b1-3)[Fuc(a1-4)]GlcNAc
In short: as §1

[28] = molecular target: Neu5Ac(a2-3)Gal(b1-3)[Fuc(a1-4)]GlcNAc(b1-3)Gal(b1-3)[Fuc(a1-4)]GlcNAc
In short: as §1

[29] = molecular target: Neu5Ac(a2-3)Gal(b1-3)[Fuc(a1-4)]GlcNAc(b1-3)Gal(b1-4)[Fuc(a1-3)]GlcNAc
In short: as §1

[30] = molecular target: Neu5Ac(a2-3)Gal(b1-3)[GlcNAc(b1-6)]GalNAc
In short: as §1

[31] = molecular target: Neu5Ac(a2-3)Gal(b1-3)[Neu5Ac(a2-6)]GalNAc
In short: as §1

[32] = molecular target: Neu5Ac(a2-3)Gal(b1-3)[Neu5Ac(a2-6)]GlcNAc(b1-3)[Fuc(a1-3)[Gal(b1-4)]GlcNAc(b1-6)]Gal(b1-4)Glc
In short: as §1

B1: Als1 (Candida albicans), P46590 (protein)
chain: KTITGVFDSFNSLTWSNAANYAFKGPGYPTWNAVLGWSLDGTSANPGDTFTLNMPCVFKYTTSQTSVDLTADGVKYATCQFYSGEEFTTFSTLTCTVNDALKSSIKAFGTVTLPIAFNVGGTGSSTDLEDSKCFTAGTNTVTFNDGDKDISIDVEFEKSTVDPSGYLYASRVMPSLNKVTTLFVAPQCENGYTSGTMGFSSSNGDVAIDCSNIHIGITKGLNDWNYPVSSESFSYTKTCTSNGIQIKYQNVPAGYRPFIDAYISATDVNQYTLAYTNDYTCAGSRLQSKPFTLRWTGYKNSDAGSNGIVIVATTRTVTDSTTAVTTLPFNPSVDKTKTIEILQPIPTTTITTSYVGVTTSYLTKTAPIGETATVIVDVPYHTTTTVTSEWTGTITTTTTRTNPTDSIDTVVVQVP
- glycan array binding signal (z-score) [1]: -0.8
- glycan array binding signal (z-score) [2]: -1.1
- glycan array binding signal (z-score) [3]: 0.673
- glycan array binding signal (z-score) [4]: -0.52
- glycan array binding signal (z-score) [5]: -0.696
- glycan array binding signal (z-score) [6]: -0.578
- glycan array binding signal (z-score) (Man(a1-3)[Man(a1-6)]Man): -0.448
- glycan array binding signal (z-score) [7]: -0.404
- glycan array binding signal (z-score) [8]: 1.09
- glycan array binding signal (z-score) [9]: -0.35
- glycan array binding signal (z-score) [10]: -0.299
- glycan array binding signal (z-score) [11]: -0.09
- glycan array binding signal (z-score) (Man(a1-6)Man): 2.42
- glycan array binding signal (z-score) (Man(b1-4)GlcNAc): -0.265
- glycan array binding signal (z-score) (MurNAc(b1-4)GlcNAc): 0.537
- glycan array binding signal (z-score) (Neu5Ac(a2-3)Gal): 1.18
- glycan array binding signal (z-score) [12]: -0.421
- glycan array binding signal (z-score) [13]: -0.623
- glycan array binding signal (z-score) [14]: -0.587
- glycan array binding signal (z-score) [15]: -0.111
- glycan array binding signal (z-score) [16]: -0.676
- glycan array binding signal (z-score) [17]: -0.408
- glycan array binding signal (z-score) [18]: 0.341
- glycan array binding signal (z-score) [19]: 0.264
- glycan array binding signal (z-score) [20]: -0.644
- glycan array binding signal (z-score) [21]: -0.269
- glycan array binding signal (z-score) [22]: -0.473
- glycan array binding signal (z-score) [23]: -0.559
- glycan array binding signal (z-score) [24]: 4.25
- glycan array binding signal (z-score) [25]: -0.166
- glycan array binding signal (z-score) [26]: 0.907
- glycan array binding signal (z-score) [27]: -0.874
- glycan array binding signal (z-score) [28]: -0.179
- glycan array binding signal (z-score) [29]: -0.015
- glycan array binding signal (z-score) [30]: 2.38
- glycan array binding signal (z-score) [31]: -0.412
- glycan array binding signal (z-score) [32]: -0.663
